From the supplement of paper PMC4604168 (melanoma cell lines)
The list shows a part of the results. Many values rest on one well or one pass, so single values are uncertain.

system: MZ2-MEL; assay: cell count relative to DMSO control; melanoma cells; higher = more viable cells; conditions: library dose: standard library concentration; 72 h
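Further: cells treated in 1,536-well plates, then fixed and DAPI-stained, with nuclei counted from automated high-throughput microscope images.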

SMILES	cell count
CCCCCCCCc1ccc(CCC(N)(CO)CO)cc1 [fingolimod] + CCN(CC)CCCCNc1ncc2cc(-c3cc(OC)cc(OC)c3)c(NC(=O)NC(C)(C)C)nc2n1 [PD173074] (first compound 10 µM, partner dose 0.5 µM)	66.5%
NC(=O)c1ccc(N(C(N)=O)c2c(F)cccc2F)nc1-c1ccc(F)cc1F + CCCCCCCCCCCC1=C(O)C(=O)C=C(O)C1=O [Embelin] (first compound 2 µM, partner dose 6 µM)	115%
CCCCCCCCc1ccc(CCC(N)(CO)CO)cc1 [fingolimod] + O=C(Nc1ccccc1)c1cc([N+](=O)[O-])ccc1Cl [GW9662] (first compound 10 µM, partner dose 10 µM)	1.8%
NC(=O)c1ccc(N(C(N)=O)c2c(F)cccc2F)nc1-c1ccc(F)cc1F + Cn1cc(/C=C2\C(=O)Nc3cccnc32)c2ccccc21 [GW441756] (first compound 2 µM, partner dose 2 µM)	84.4%
